The RNAGym collection of RNA variant scans (doi:10.7554/elife.90254)
Read counts are not given, so values of variants with three or more changes are uncertain.

B1: LINE1-mini (parent)
chain: GGCAGAGCUCAACACAGCGUGGCAAAGUGGCUGUGGCUAGACUGCC

Variants of: B1
Assay: self-cleavage, relative activity (ratio to wild type); higher = more cleavage; in vitro, sequencing; the parent is a self-cleaving ribozyme

| Variant | self-cleavage |
| --- | --- |
| C3U C8A C13A C15A G27U G40C A41C U43G | 0.43 |
| C3U G22A G33A | 0.06 |
| C3U G17A G35C | 0.01 |
| C3U G5C A6U C18U G27C | 0.19 |
| C3U C15U C18A U28A G30U U34G | 0.03 |
| C3U C18U C46U | 1.08 |
| C3U G7A U9A C15G G22U | 0.29 |
| C3U G21C C37A | 0.03 |
| C3U C15U A25U A26C | 0.28 |
| C3U C31G C42A | 0.02 |
| C3U C8G C13U C18U G27A G33A | 0.19 |
| C3U G21C C31A | 0.02 |
| C3U C8U U20C G30A G44U | 0.15 |
| C3U A24U U32A A41U | 0.26 |
| C3U G7U A14C C37A C42A U43A | 0.02 |
| C3U C10U A16C U34C C46U | 0.02 |
| C3U G7C C13U C45G | 0.07 |
| C3U G7U G19A G29A G33U | 0.19 |
| C3U G21C C23U C37A | 0.14 |
| C3U C23G C31G | 0.03 |
| C3U C18U G35U U38G | 0.02 |
| C3U A16U G36U G40U | 0.08 |
| C3U G21U C31U | 0.26 |
| C3U C8A C45A | 0.25 |

| Variant | self-cleavage |
| --- | --- |
| C3U C8A G17U A24C G44U | 0.05 |
| C3U C8G A16U C18G A41C C46A | 0.06 |
| C3U C10A C18A C31A A41C | 0.04 |
| C3U C13A C23A G27U U32C C46A | 0.07 |
| C3U C31G G40U | 0.06 |
| C3U G7U C15U | 0.07 |
| C3U G5U A16C U20A U28G | 0.02 |
| C3U C8U U28A U32G | 0.17 |
| C3U A24C G33A | 0.14 |
| C3U A12U G19C A41C | 0.05 |
| C3U C8A A24G G29U | 0.42 |
| C3U C8U C10U C13G A39G C45A | 0.01 |
| C3U G22U G33A U34C | 0.09 |
| C3U C10A C15G C37A C46U | 0.02 |
| C3U C10U A14U U20A A25C C31G A41C | 0.04 |
| C3U G19U G44A | 0.58 |
| C3U A16U G35U | 0.04 |
| C3U G17U G22U | 0.15 |
| C3U C10U A14C G22C | 0.05 |
| C3U C10A G27U U32C | 0.05 |
| C3U C10A U20C C42A | 0 |
| C3U G17C G22U A24G A25U | 0.21 |
| C3U G21A C23U C31A | 0.02 |
| C3U G17U A25C G29A C45G | 0.06 |

| Variant | self-cleavage |
| --- | --- |
| C3U C10G G29U | 0 |
| C3U G5A U34C G36A | 0.08 |
| C3U A24U G33C A39G C42A | 0.05 |
| C3U G17A U28G C46G | 0.04 |
| C3U G27A C37U | 0.1 |
| C3U C13U G17C C37U C45G | 0.11 |
| C3U C8A A16G G30U | 2.57 |
| C3U A14G A41U C46U | 0.03 |
| C3U C31G U34G G44A | 0 |
| C3U C18A C46A | 0.08 |
| C3U C13U A16G G19C A24G | 0.02 |
| C3U G5C A26G G29U | 0.09 |
| C3U C8A A11U G33U G36A C46A | 0.01 |
| C3U G29C G30C | 0.13 |
| C3U G7U C10A G19A C37G | 0.01 |
| C3U C10G C13U U38G | 0.01 |
| C3U G7C G19A G29C G44U | 0.08 |
| C3U C37U C45A | 0.07 |
| C3U C18U G22U G30C | 0.48 |
| C3U C13A U32C | 0.14 |
| C3U G7A G27U U34A | 0.71 |
| C3U G21A C46U | 0.31 |
| C3U A14C G17C U20A G27U G35C | 0.04 |
| C3U C18U C45G | 0.13 |

| Variant | self-cleavage |
| --- | --- |
| C3U G19U U34A A39G | 0.02 |
| C3U G19U C23U | 0.33 |
| C3U C37G U43C C45G | 0.13 |
| C3U C42U U43C | 0.01 |
| C3U A25C G29U | 0.16 |
| C3U G29A U38A G40A C46A | 0.13 |
| C3U A14U A16C U38G | 0.11 |
| C3U G5C G19U G30C | 0.06 |
| C3U A16U C18G G30U G33A G36U | 0.04 |
| C3U C8U A41G | 0.03 |
| C3U C10U G17C C37G | 0.07 |
| C3U C8G C46U | 0.04 |
| C3U C8A A16U G27A | 0.49 |
| C3U G7U G21U | 0.24 |
| C3U C15A G30A | 0.14 |
| C3U G7U C10A C18U A25U G33A C37G | 0.01 |
| C3U C13U U43A | 0.1 |
| C3U A14G C23G | 0.07 |
| C3U A25U U38A | 0.11 |
| C3U A25U U38C | 0.18 |
| C3U A26U U32C C37U G44U | 0.06 |
| C3U G5A C8U G35C A41G | 0.03 |
| C3U G7A A26C G27U | 0.12 |
| C3U G5U C8A U9G C23G | 0.09 |

| Variant | self-cleavage |
| --- | --- |
| C3U C10G G21U U32A | 0.01 |
| C3U C15U U20C | 1.29 |
| C3U C13A A16G | 0.04 |
| C3U C10G C23G C45G | 0.01 |
| C3U A14C A26C | 0.08 |
| C3U C18A G36A A39G | 0.1 |
| C3U A14U C45U | 0.04 |
| C3U G27U C46U | 0.17 |
| C3U G22A G36U C46G | 0.04 |
| C3U C8G C18A G33A G40A | 0.03 |
| C3U A16C G22C | 0.01 |
| C3U C10U G19C A41C | 0.03 |
| C3U G22C G44U | 0.09 |
| C3U C15A C18G G29C G36C C46U | 0.11 |
| C3U C15G A16C C18G C31A | 0.05 |
| C3U G5C C18G C23G G29U | 0.01 |
| C3U C10A A16G A24G | 0.03 |
| C3U C10A A24G G33C | 0.06 |
| C3U C31A A41U | 0.08 |
| C3U A12U C23G C37U G44A | 0 |
| C3U G7A C13G | 0.07 |
| C3U C15G U32G U43G | 0.04 |
| C3U C15U A16G A24G C31U | 0.03 |
| C3U G7C A12G A14U A25C G33U | 0.05 |

| Variant | self-cleavage |
| --- | --- |
| C3U C8A U28C C31G | 0.16 |
| C3U G7C G17C C23A A25U C42A | 0.07 |
| C3U G5C G19C C31U | 0.04 |
| C3U C18U G33A C37G | 0.02 |
| C3U C23G C37U | 0.02 |
| C3U A12U C15A G17U U20G C37A | 0.01 |
| C3U A24U C31U | 0.03 |
| C3U G27A G29U G44U | 0.16 |
| C3U G5A A39G | 0.4 |
| C3U C13G C18G | 0.08 |
| C3U A12G C15G | 0 |
| C3U G19U A26C G33U | 0.35 |
| C3U C8A C10G A11U G17U G33U | 0.06 |
| C3U G27U C42A | 0.21 |
| C3U C10A G27C G35A C42U | 0 |
| C3U G5U A16U G19A | 0.05 |
| C3U C8G C13A | 0.03 |
| C3U G22A G35A C46A | 0.11 |
| C3U C10U C23G G29U G36U | 0.03 |
| C3U A26C G30U | 0.13 |
| C3U C15A A25G A26G | 0.04 |
| C3U A16G G30U C37A | 0.16 |
| C3U C13A U38C | 0.11 |
| C3U C10U A24G G29A C37U | 0.03 |

| Variant | self-cleavage |
| --- | --- |
| C3U C23U G29U U32G U38A | 0.06 |
| C3U C8U C18A U32A | 0.18 |
| C3U C15U A16C | 0.03 |
| C3U G5U G21A A26G G35U A39G C45G | 0.17 |
| C3U C8U A12C G35U C37U A41G | 0.02 |
| C3U C13G A16U G17U C18A G22A U38A | 0.12 |
| C3U G5A A6C C23U G44U | 0.02 |
| C3U G5C A11U G22U | 0.01 |
| C3U G27U G30A C31G | 0.05 |
| C3U C13G C23A G35U G40C | 0.27 |
| C3U C8G C45A | 0.05 |
| C3U G19C G30C | 0.84 |
| C3U A25C G40A G44U | 0.03 |
| C3U G7C A39G | 0.28 |
| C3U G21U A41U | 0.79 |
| C3U C15A A26G G33U C45U | 0.04 |
| C3U C13U G17C A25G G30U G40U | 0.05 |
| C3U G5C G36A A41G | 0.54 |
| C3U G19U G30A | 0.04 |
| C3U A25G C37A | 0.07 |
| C3U C8G C37U | 0.31 |
| C3U C15G G29U G33U | 0.01 |
| C3U G5A A12U | 0.1 |
